From the supplement of paper PMC10338343
± gives the standard deviation. The list shows a part of the results, in another mix than the full data.

These sequences were tested on MIWI (PIWIL1) piRISC loaded with piRNA #1 (30 nt) (assay: pre-steady-state target cleavage rate (min^-1); MIWI and MILI are mouse PIWI proteins and EfPiwi is from a freshwater sponge; tags in brackets are library labels; higher = faster piRNA-guided slicing of the target). Details: guide: piRNA #1 5'p-UGAGGUAGUAGGUUGUAUAGUAUCCAGAGG; auxiliary factor: 500 nM mouse GTSF1.
Outline: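 At 33 °C in HEPES–potassium acetate buffer, a transcribed, DNA-blocked target RNA library […] was exposed for 0–8 or 0–960 min to 1 nM active affinity-purified piRISC carrying a single synthetic guide, with or without 500 nM GTSF1 partner protein. Uncleaved targets were sequenced and normalised to depth and to weakly complementary targets. With three trials pooled and k3 capped at 0.0001 min^-1, a burst-and-steady-state fit produced the pre-steady-state cleavage rate.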
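Further: 1 nM active piRISC with 0.1 nM target library at 33 °C single turnover.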

Row | Sequence | pre-steady-state target cleavage rate
1 | GGACUGGAUACUAAACAACCUAGUACCUCA | 0.319 ± 0.053
2 | GGAGACCUAUCUAUACAUCCUACUACCUGA | 0.151 ± 0.023
3 | GGAGACCUAACUAUACAAGCUAGUACCUCA | 0.248 ± 0.026
4 | GGAGACCUAUGAUAUGUUGCUACUCACCUCA | < 0.0001
5 | CCUCUGGAUACUAUACAUCCUACUUCCUCA | 0.401 ± 0.059
6 | CCACUGGAUACUAUACAACCUAGUACCUCA | 0.131 ± 0.023
7 | GCUGACGAUACUAUACAACCUACUACCUCA | 1.84 ± 0.1
8 | GGAGAGGAUACUAUACAACCAACUACCUCA | 0.133 ± 0.011
9 | GGAGACCUAUGAUAUGUUCCUACUCCUCA | < 0.0001
10 | GGAGUGGUAUACUAUACAACCUACUACCUCA | 1.27 ± 0.051
11 | GCUCUGGAUACUAUACAACCUACGUACCUCA | 0.68 ± 0.087
12 | GGAGACCUAUGUAUACAACCUCCUACCUCA | 0.0733 ± 0.0095
13 | GGUCUGGAUACUAUACAACCUACUACCCCA | 0.6 ± 0.1
14 | GGAGACGAUACUAUACAACCUACUAGCCUCA | 0.845 ± 0.081
15 | GGAGACCUUAUCUAUACAACCUACUACCUCA | 1.19 ± 0.1
16 | GCACUGGAUACUAUACAACCUACUACCUGA | 1.04 ± 0.16
17 | GGAGACCUAUCUAUACAACGUACUUCCUCA | 0.0198 ± 0.0054
18 | GGAGUGGAUACUAUACAACCUACUAUCCUCA | 0.424 ± 0.04
19 | GGAGACCUUACAAUACAACCUACUAGCUCA | 0.157 ± 0.029
20 | GGAGACCAUACUUUACAUCCUACUACCUCA | 0.953 ± 0.094

Row | Sequence | pre-steady-state target cleavage rate
21 | GGAGAGGAUUCUAUACAACCUACUUCCUCA | 0.0434 ± 0.0092
22 | GCUCUGGAUACAAUUCAACCUACUACCUCA | 1.3 ± 0.075
23 | GGAGACCUUUCUAAACAACCUACUACCUCA | 0.0719 ± 0.013
24 | GGAGACCAAACUAUACAACCUACAACCUCA | 0.379 ± 0.052
25 | GGAGACCUUACUAUACAUGCUACUACCUCA | 0.291 ± 0.029
26 | GGAGACCAUACUAUACAACCUUACUACCUCA | 0.00418 ± 0.0022
27 | GCUCUGGAUACUAUACAACCUAGAACCUCA | 0.252 ± 0.038
28 | GGAGUGGAUACUAUACAACCUAGAUGGAGA [g9:g26:cont:t1A] | < 0.0001
29 | GGACUGGAUACUAUACAACCUACUACGUCA | 0.505 ± 0.06
30 | GCUCUCGUUACUAUACAACCUACUACCUCA | 1.45 ± 0.096
31 | GGAGACCAUACUAUACAACCUUCUACCACA | 0.521 ± 0.03
32 | CCUCUGGAUACUUAACAACCUACUACCUCA | 1.38 ± 0.1
33 | GGAGACCAUACUAUAGAAGCUACUACCUCA | 0.242 ± 0.027
34 | GGAGACCAUACUAUACAACCUACUACGAGA | 0.355 ± 0.068
35 | GGAGACGAUACUAAACAACCUACUUCCUCA | 0.35 ± 0.045
36 | GGAGAGGAUUCUAUACAACCUACUACCUGA | 0.301 ± 0.045
37 | CCUGUGGAUACUAUACAAGCUACUACCUCA | 0.963 ± 0.039
38 | GGAGACCAUACAAUACAACCUACUACCUCA | 0.972 ± 0.095
39 | GGACUGGAUACUAUACAACGUUCUACCUCA | 0.107 ± 0.014
40 | GCUCUGGAUACUAUACUACCUACUAGCUCA | 1.09 ± 0.11
